According to paper PMC4207660, “Identification and Characterization of Hundreds of Potent and Selective Inhibitors of Trypanosoma brucei Growth from a Kinase-Targeted Library Screening Campaign” (PLoS Neglected Tropical Diseases, 2014):
In brackets after ≈: the same amount, converted by molar mass. Read-outs that look alike come from different tables or passages of the source.

Columns and labels:
[1] = tested on: T. brucei brucei parasites (Lister 427 strain); assay: Dose response growth inhibition assay (resazurin, 72 h); format: cell-based; settings: Trypanosoma brucei; T. b. brucei growth inhibition; read-out: Tbb pEC50 (converted)
Experimental: Greiner sterile black clear bottom 384-well assay plates were pre-dispensing with 200 nL of compound in each well, from master plates at 1 mM (100% DMSO) containing selection from the GSK compound collection. Controls of 0% response (control 1, 200 nL of 100%DMSO) and 100% response (control 2, 200 nL of 1 mM pentamidine) were included in each assay plate in columns 6 and 18, respectively. Plates containing 200 nL of 100% DMSO were included randomly in the assay, to assess quality through all process. […] After this period, 10 µL of 200 µM resazurin solution in prewarmed HMI-9 were added to each well, and plates were allowed to incubate 2 hours more prior fluorescence reading in a Wallac EnVision Multilabel Plate Reader (Perkin-Elmer). Raw fluorescent data from the Envision plate reader were uploaded into GSK HTS database (ActivityBase). Activity of each well was normalized as a percentage of inhibition per-plate basis using the following equation: [drawing 1]
For dose-response experiments, serial compound dilutions of selected hits from the primary campaign were plotted against compound concentration. Dose response master plates were prepared by 3-fold dilutions (starting with 10 mM DMSO stock solutions), providing 11 concentrations. From these master plates, 200 nL per well was stamped in final assay plates, including the same controls describe in the primary single shot assay. […]

Cytochrome P450 (CYP450) = Cytochrome P450 (CYP450) (Homo sapiens, UniProt P08684); assay: Cytochrome P450 inhibition profile; format: in vitro ADME; settings: Measured
Experimental: The P450 inhibition profile of the inhibitors was determined as previously described.

ChromlogD assay = assay: ChromlogD assay
Experimental: The Chromatographic Hydrophobicity Index (CHI)[22] values were measured using reversed phase HPLC column (Luna C18 (2), Phenomenex, UK) with a fast acetonitrile gradient at starting mobile phase of pH = 7.4. CHI values are derived directly from the gradient retention times by using a calibration line obtained for standard compounds. The CHI value approximates to the volume % organic concentration when the compound elutes. […] The average error of the assay is ±3 CHI unit or ±0.25 ChromlogD.

[2] = CLND kinetic solubility assay; format: physicochemical; settings: phosphate buffered saline, pH 7.4, aqueous buffer, kinetic from dmso stock; Measured; read-out: Aq Sol
Experimental: 5 µL of 10 mM DMSO stock solution was diluted to 100 µL with pH 7.4 phosphate buffered saline, equilibrated for 1 hour at room temperature, filtered through Millipore MultiscreenHTS-PCF filter plates (MSSL BPC). The filtrate was quantified by suitably calibrated flow injection Chemi-Luminescent Nitrogen Detection.

Structure (SMILES)	EC50 [1] [µM]	IC50 (Cytochrome P450 (CYP450); CYP3A4, VG substrate, read-out: CYP3A4VG pXC50 (converted)) [µM]	PFI (ChromlogD assay)	solubility kinetic at 1 h [2] [µM]	IC50 (Cytochrome P450 (CYP450); CYP3A4, VR substrate, read-out: CYP3A4VR pXC50 (converted)) [µM]
O=C(N[C@H](CO)c1ccccc1)c1ccc2cncc(-c3cn[nH]c3)c2n1 [NEU-0001114]	0.631	10	–	–	–
COCc1cc(-c2cc3c4c(n[nH]c4c2)Nc2ccccc2O3)nc(N)n1 [NEU-0001117]	–	–	5.73	–	–
Nc1ncnc2cc(-c3cccc(NC(=O)c4ccncc4)c3)sc12 [NEU-0001120]	0.126	–	7.25	–	–
Cn1cc(-c2ccc3nc(-c4cc(-c5cccc(CCN6CCOCC6)c5)cnc4N)[nH]c3c2)cn1 [NEU-0001121]	–	–	8.61	2 (≈ 0.959 µg/mL)	7.94
